From paper PMC4336329 (PLoS ONE, 2015)
The whole screen tested about 310,000 compounds, of which about 2,200 (0.71%) showed an effect of 50% or more. The effect is printed as a negative number. The list shows a part of the results.

biological target: human ether-à-go-go-related gene (hERG) potassium channel (human, UniProt Q12809); assay: primary screen, population patch clamp on CHO cells stably expressing hERG
Sequence (Q12809 whole entry, looked up): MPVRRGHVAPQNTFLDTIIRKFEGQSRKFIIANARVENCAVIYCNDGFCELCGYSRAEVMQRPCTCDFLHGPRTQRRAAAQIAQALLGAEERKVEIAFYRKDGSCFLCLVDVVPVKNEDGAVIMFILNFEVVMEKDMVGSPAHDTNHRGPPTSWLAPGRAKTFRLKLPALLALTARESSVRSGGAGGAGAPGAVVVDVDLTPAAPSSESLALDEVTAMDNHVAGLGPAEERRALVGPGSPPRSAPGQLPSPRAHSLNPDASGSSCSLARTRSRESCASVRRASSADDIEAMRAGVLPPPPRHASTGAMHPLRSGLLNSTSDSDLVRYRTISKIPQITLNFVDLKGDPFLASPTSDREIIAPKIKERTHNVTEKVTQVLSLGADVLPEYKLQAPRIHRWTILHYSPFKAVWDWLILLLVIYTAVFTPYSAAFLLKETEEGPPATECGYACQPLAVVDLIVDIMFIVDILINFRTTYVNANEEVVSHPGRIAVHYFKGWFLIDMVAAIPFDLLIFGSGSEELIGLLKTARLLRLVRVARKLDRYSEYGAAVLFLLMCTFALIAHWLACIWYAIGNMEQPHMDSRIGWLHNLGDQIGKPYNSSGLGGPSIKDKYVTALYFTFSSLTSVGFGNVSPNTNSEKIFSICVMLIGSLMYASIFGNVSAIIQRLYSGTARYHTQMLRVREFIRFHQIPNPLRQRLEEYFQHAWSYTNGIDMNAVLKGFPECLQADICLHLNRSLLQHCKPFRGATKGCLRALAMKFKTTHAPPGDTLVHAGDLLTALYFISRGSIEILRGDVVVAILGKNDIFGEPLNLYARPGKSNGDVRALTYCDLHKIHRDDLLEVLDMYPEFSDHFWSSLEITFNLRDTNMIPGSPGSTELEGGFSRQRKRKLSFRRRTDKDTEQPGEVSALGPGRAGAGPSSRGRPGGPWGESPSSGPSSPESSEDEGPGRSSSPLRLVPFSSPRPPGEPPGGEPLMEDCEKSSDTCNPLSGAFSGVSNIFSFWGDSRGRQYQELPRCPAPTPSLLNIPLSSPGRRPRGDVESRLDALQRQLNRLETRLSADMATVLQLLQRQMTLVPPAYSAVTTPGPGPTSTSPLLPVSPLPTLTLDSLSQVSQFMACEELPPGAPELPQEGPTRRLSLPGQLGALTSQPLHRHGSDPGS

| SMILES | hERG current change (%, negative = inhibition) at 1uM |
| --- | --- |
| O=C(COc1cccnc1[N+](=O)[O-])N1CCN(C(=O)c2ccco2)CC1 | 0.106% |
| C/C(Cl)=C/Cn1c(SCC(C)C)nc2c1c(=O)[nH]c(=O)n2C | 10% |
| N=C1/C(=C\c2ccc(OC(=O)c3ccc(F)cc3)cc2)C(=O)N=C2SC(N3CCOCC3)=NN12 | 13.1% |
| CCNc1ccc2noc3c2c1C(=O)c1ccccc1-3 | 10.7% |
| CCOCc1cc(C)[nH]c(=O)c1C#N | 2.48% |
| CCCC(C)c1nnc(NC(=O)C(=O)OCC)s1 (centres unmarked) | 6.89% |
| CN1CCN(C(=O)C2=C[C@@H](c3csc4ccccc34)C[C@@H](OCc3ccc(CO)cc3)O2)CC1 | -0.559% |
| O=C(CN1C(=O)NC2(CCCCCCC2)C1=O)N1CCN(C(=O)c2ccco2)CC1 | 5.61% |
| NC(=O)NC(CC(=O)NCCc1ccc(S(N)(=O)=O)cc1)c1ccc(Cl)cc1 (centres unmarked) | 11.7% |
| CC(=O)Nc1ccc(C(=O)NC(C)c2ccc(-n3ccnc3)cc2)cc1 (centres unmarked) | 13.2% |
| CCc1ccc(CNC(=O)CN2C(=O)COc3ccccc32)cc1 | 3.96% |
| COc1ccc(-c2cnc3ccccc3n2)cc1NC(=O)CNC(=O)c1ccccc1 | 18.7% |
| COC(=O)c1[nH]c2ccc(F)cc2c1NS(=O)(=O)c1ccc(OC)cc1OC | 7.51% |
| CC1(C)CC(=O)C2=C(C1)Nc1ccccc1NC2c1ccccc1F (centres unmarked) | 15% |
| CC(C)NC(=O)c1ccccc1-c1ccccc1 | 13.4% |
| COc1ccccc1N1CCN(c2cnccn2)CC1 | 5.09% |
| COC(=O)c1nnn(CC(=O)Nc2cc(Cl)ccc2C)c1C(=O)OC | 9.03% |
| COCc1nnc(NC(=O)CCc2ccccc2)s1 | -3.48% |
| COc1ccc(Oc2coc3cc(O)ccc3c2=O)cc1 | 3.97% |
| CC1CC(=O)Nc2ccccc2N1C(=O)CSc1ncnc2sccc12 (centres unmarked) | 3.79% |
| COc1ccc(/C=C/C(=O)N2CCCc3ccccc32)cc1 | 3.31% |
| COc1ccc(NC(=O)C2CCCO2)cc1 (centres unmarked) | 5.09% |
| CC(=O)Nc1ccc2c(c1)C(C)(C)C(C)N2C (centres unmarked) | 8.51% |

| SMILES | hERG current change (%, negative = inhibition) at 1uM |
| --- | --- |
| COc1ccc(-n2c(C)c(C(C)=O)c3cc(OC(C)=O)ccc32)cc1 | 21.1% |
| CCc1ccc(OCC(=O)N/N=C\c2ccco2)c([N+](=O)[O-])c1 | -0.899% |
| CN(CC(=O)Nc1ccc(S(=O)(=O)N2CCOCC2)cc1)Cc1ccc(F)cc1 | 6.46% |
| CC(C)c1nnc(SCC(=O)N2CCc3ccccc32)n1N | 11.4% |
| Cc1cccc(NC(=O)COC(=O)CCc2ccccc2)c1C | 12.5% |
| Cc1cc(C(=O)COC(=O)c2ccc([N+](=O)[O-])o2)c(C)n1CC1CCCO1 (centres unmarked) | -3.19% |
| COc1cccc(-c2ncc3ccccc3c2COC(=O)N2CCCCC2)c1 | 15.3% |
| COc1ccc(C(=O)CC(=O)C(=O)Nc2cccc([N+](=O)[O-])c2C)cc1 | 17.8% |
| Cc1ccc(CCNC(=O)c2nnc(CS(=O)(=O)c3ccccc3)o2)cc1 | 6.22% |
| CCOC(=O)N1CCN(C(=O)Cn2cnc3ccccc3c2=O)CC1 | 12.7% |
| Cc1nn(C)cc1S(=O)(=O)Nc1ccccc1Br | 17% |
| COc1ccc(-n2ncc3c(NCc4cccs4)ncnc32)cc1 | 8.61% |
| Cc1cc(=O)oc2cc(OC(C)C(=O)Nc3nccs3)ccc12 (centres unmarked) | 0.489% |
| CNC(=O)C1CC(=O)N(c2ccc(F)c(Cl)c2)C1 (centres unmarked) | 4.53% |
| O=c1c2ccccc2nc2n1CCN2Cc1ccc(Cl)cc1 | -4.95% |
| CC1(C)S/C(=N/N=C/c2cccs2)NC1=O | 7.83% |
| CCCCOC(=O)NS(=O)(=O)c1sc(CC(C)C)cc1-c1ccc(Cn2c(CC)nc3c(C)cc(C)nc32)cc1 | 11.6% |
| O=C(NCc1cccnc1)c1cn(CCc2ccccc2)nn1 | 5.53% |
| CCn1c(=O)c(C(C)=O)nc2ccccc21 | 2.78% |
| COc1ccc(C2NC(=O)CCC2[N+](=O)[O-])cc1 (centres unmarked) | 19.2% |
| O=c1cc(-c2ccccc2)c2c(O)cc(O)cc2o1 | 3.67% |
| COC(=O)c1ccc(C(=O)OC)nc1 | 15% |
| CCOC(=O)c1ccc(NC(=S)NCCc2ccc(OC)c(OC)c2)cc1 | 8.09% |

| SMILES | hERG current change (%, negative = inhibition) at 1uM |
| --- | --- |
| CCOc1ccc(/C(C)=N/NC(=O)C(OC)c2ccccc2)cc1 (centres unmarked) | 10.8% |
| COc1ccccc1CCNS(=O)(=O)CCNC(=O)c1ccccc1 | 6.75% |
| O=C(CN(C(=O)c1csnn1)c1cccc2c1CCCC2)NC1CCCC1 | 13.1% |
| C=CCNC(=O)CCc1nnc(C2(c3ccc(Cl)cc3)CCC2)o1 | 14.3% |
| O=C(Cn1cccn1)c1ccccc1 | 14.3% |
| CN(C)S(=O)(=O)Nc1cccc(Br)c1 | 3.24% |
| O=C(Nc1cccc(F)c1)Nc1ccc(Cl)cn1 | 1.67% |
| COc1ccc(OCC(=O)Nc2ccc3c(c2)nc(CCN2CCCC2)n3C)cc1 | 0.42% |
| O=C1C=C(c2ccc(Cl)c(C(F)(F)F)c2)C[C@@H](c2ccc(F)cc2)C1 | 15.8% |
| O=C(c1ccccn1)N1CCCC(N2CCN(c3cccc(C(F)(F)F)c3)CC2)C1 (centres unmarked) | -2.23% |
| COC(=O)c1ccc(N=Cc2c(C(F)(F)F)[nH][nH]c2=O)cc1 | 13.1% |
| CCOC(=O)c1sc2nc(COC(=O)c3c(F)cccc3F)[nH]c(=O)c2c1C | -2.14% |
| O=C(CN1CCCCC1)Nc1nnc(-c2ccc([N+](=O)[O-])cc2)s1 | 3.36% |
| NC(=S)N/N=C/c1ccccc1OCc1cccc(Cl)c1 | 0.752% |
| COc1ccc(CCNC(=O)CSc2ccc(-c3ccco3)nn2)cc1OC | 10.4% |
| O=C(Nc1ccc2c(c1)OCO2)C1CCCCN1S(=O)(=O)c1ccc(F)cc1 (centres unmarked) | -0.837% |
| O=C(CCS(=O)(=O)c1ccccc1)Nc1nc(-c2ccc(F)cc2)cs1 | -1.01% |
| CS(=O)(=O)c1ccc(Cl)c(NC(=O)COC(=O)c2cccc(S(=O)(=O)N3CCCC3)c2)c1 | 0.346% |
| O=c1c2cc(N3CCOCC3)ccc2[nH]c(=S)n1Cc1ccccc1Cl | 9.46% |
| Cc1ccc(OCCCn2c(CO)nc3ccccc32)cc1 | 0.848% |
| CCOc1ccc2[nH]c(=O)c(CN(CCCO)S(=O)(=O)c3ccc(F)cc3)cc2c1 | 2.55% |
| CCOC(=O)C(NC(=O)c1ccccc1OCC)(Nc1ncccn1)C(F)(F)F (centres unmarked) | 0.28% |
| CSc1nc(C)cc(SCC(=O)Nc2ccc(Cl)cc2Cl)n1 | 9.54% |

| SMILES | hERG current change (%, negative = inhibition) at 1uM |
| --- | --- |
| O=C(NCc1ccccc1)c1ccc(Br)cc1Br | 11.3% |
| CC(C)(C)c1cc(-c2ccccc2)n[nH]1 | 7.95% |
| COc1ccc(C(=O)NC(=S)NNC(=O)c2ccccc2C)cc1 | 11.2% |
| CCOc1ccccc1NC(=O)Nc1ccc(Br)cc1C | 9.87% |
| Cn1cccc1-c1cc(C(=O)N/N=C/c2ccccc2Cl)[nH]n1 | 10.7% |
| O=C1C2C3C=CC(C3)C2C(=O)N1Cc1cccnc1 (centres unmarked) | 6.1% |
| O=C(Nc1ccc([N+](=O)[O-])cc1)C(=O)Nc1cccc(C(=O)O)c1 | 1.54% |
| O=C1CSC(c2ccc3c(c2)OCO3)N1c1ccc(Oc2ccccc2)cc1 (centres unmarked) | 0.177% |
| Oc1ccc(-c2nnc(SCc3ccccc3)o2)cc1 | 6.29% |
| CCN(CCNC(=O)Nc1ccc(Cl)cc1)c1ccccc1 | 9.78% |
| Cc1ccc(CNC(=O)[C@@H]2CCC(=O)N2Cc2ccco2)cc1 | 17.4% |
| COc1ccc(-c2nc(CS(=O)CC(=O)NCc3ccc(Cl)cc3)c(C)o2)cc1 (centres unmarked) | 3.9% |
| O=C(c1cc(F)c(F)cc1Cl)N1CCN(c2ncccn2)CC1 | 14.4% |
| COc1cc(C(=O)N2C(=O)c3cccc(N)c3C2=O)cc(OC)c1OC | 8.97% |
| Cn1cccc1CNC(=S)Nc1ccccc1Cl | 11.2% |
| NS(=O)(=O)c1cccc(NC(=O)CCC(=O)c2cccs2)c1 | 14.1% |
| COc1ccccc1CNC(=O)C(=O)NCCC1CCCCN1S(=O)(=O)c1cccs1 (centres unmarked) | 17.3% |
| COc1ccc(/C=C2/SC(=S)N(CCC(=O)N3CCN(C)CC3)C2=O)cc1 | 13.5% |
| CCOC(=O)/C=C1\NC(C)(C)Cc2cc(OC)c(O)cc21 | -6.93% |
| CCOC(=O)N1CCC(NC(=S)Nc2ccc3nc(N4CCN(C)CC4)cc(C)c3c2)CC1 | 10.1% |
| NC(=S)Nc1ccc(F)cc1F | 8.3% |
| CCCc1c(C)nc(N2CCN(c3ccccc3OC)CC2)[nH]c1=O | 15.5% |
| C=CC[n+]1c(-c2ccc(OC)c(OC)c2)csc1NNC(=O)Nc1ccccc1.[Br-] | 9.69% |
